Results on 4 molecules are retold here after publication PMC1829190.

Assay in all cases: co-IP; native yeast extracts; Mad3p complexes immunoprecipitated (anti-Mad3p), then immunoblotted for Mad3p, Bub3-myc13 (anti-myc), Mad2p and Cdc20p-myc13 (anti-myc); for Mad2p and Cdc20p the cells were arrested in mitosis with hydroxyurea and nocodazole
Test [1] has as its target T1, Mad3-KEN30AAAp (S. cerevisiae) (UniProt P47074).
T1 sequence: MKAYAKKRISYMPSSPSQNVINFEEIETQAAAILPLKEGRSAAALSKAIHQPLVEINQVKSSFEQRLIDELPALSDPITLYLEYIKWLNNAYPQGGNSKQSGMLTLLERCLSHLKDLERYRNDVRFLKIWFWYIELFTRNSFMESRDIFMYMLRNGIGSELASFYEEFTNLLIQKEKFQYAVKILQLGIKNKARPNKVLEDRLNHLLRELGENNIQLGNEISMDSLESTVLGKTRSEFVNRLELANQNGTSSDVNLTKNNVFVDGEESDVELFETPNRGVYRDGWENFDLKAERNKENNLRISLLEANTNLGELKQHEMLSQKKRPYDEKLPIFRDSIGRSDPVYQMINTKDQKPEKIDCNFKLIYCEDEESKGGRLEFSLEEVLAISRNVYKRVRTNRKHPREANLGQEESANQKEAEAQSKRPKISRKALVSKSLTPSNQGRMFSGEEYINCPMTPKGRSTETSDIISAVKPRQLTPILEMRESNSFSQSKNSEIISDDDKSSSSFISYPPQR

The target of test [2] is T2, mad3-KEN296AAAp (S. cerevisiae) (UniProt P47074).
T2 sequence: T1 sequence with A30K, A31E, A32N, K296A, E297A, N298A

Test [3] concerns the target T3, Mad3p double KEN mutant (mad3-KEN30/296AAA) (S. cerevisiae) (UniProt P47074).
T3 sequence: T1 sequence with K296A, E297A, N298A

Test [4] addresses T4, Mad3p (wild type, S. cerevisiae) (S. cerevisiae), P47074.
T4 chain: T1 sequence with A30K, A31E, A32N
The following applies: remark: other sources report otherwise.

In test [5] the target is T5, Mad3p (wild type, S. cerevisiae) (S. cerevisiae) (UniProt P47074).
T5 sequence: T1 sequence with A30K, A31E, A32N

Residue numbers refer to the chain shown, from its start. Results are given in words; binding and its absence hold for the method and conditions named. In cells and extracts the contact can be indirect. Some results given as binding are weak or reduced against the parent protein; the word gives no strength. For part of these data: Where a sequence is shown, tags or fusion partners need not be part of it.

For the molecule “Mad2p (S. cerevisiae) (from UniProt P40958 1-196)”, the binding result in test [1] was “no binding”; in test [2] it was “binds”; in test [3] it was “no binding”.

B1: Mad2p (S. cerevisiae), P40958 1-196 (protein)
chain: MSQSISLKGSTRTVTEFFEYSINSILYQRGVYPAEDFVTVKKYDLTLLKTHDDELKDYIRKILLQVHRWLLGGKCNQLVLCIVDKDEGEVVERWSFNVQHISGNSNGQDDVVDLNTTQSQIRALIRQITSSVTFLPELTKEGGYTFTVLAYTDADAKVPLEWADSNSKEIPDGEVVQFKTFSTNDHKVGAQVSYKY
As to B1, in test [4], the binding result was “binds”.

B2: Cdc20p-myc13 (protein, UniProt P26309 1-610)
chain: MPESSRDKGNAAISGNRSVLSIASPTKLNILSSDWSRNQGKVSKNSLKRSSSLNIRNSKRPSLQASANSIYSRPKITIGAPPLIRRDSSFFKDEFDAKKDKATFSAYSSRSYPTIGSESVVSQTSLSQPTTSREVDEQFTVAADRYIPILQGASQNKVDPETLHEALPPPNASPISHLRAQTKIVFKQNVAEACGLDMNKRILQYMPEPPKCSSLRQKSYIMKKRTHYSYQQEQKIPDLIKLRKINTNPERILDAPGFQDDFYLNLLSWSKKNVLAIALDTALYLWNATTGDVSLLTDFENTTICSVTWSDDDCHISIGKEDGNTEIWDVETMSLIRTMRSGLGVRIGSLSWLDTLIATGSRSGEIQINDVRIKQHIVSTWAEHTGEVCGLSYKSDGLQLASGGNDNTVMIWDTRTSLPQFSKKTHTAAVKALSWCPYSPNILASGGGQTDKHIHFWNSITGARVGSINTGSQVSSLHWGQSHTSTNGGMMNKEIVATGGNPENAISVYNYETKFKVAEVVHAHEARICCSQLSPDGTTLATVGGDENLKFYKIFDPRCTGRSREDGLMDGMLGLIGKEGCRTNDKENRSKNSSEIHTRRPSSTSQYLIR
Take B2: the binding result in test [5] is listed as “binds”; in test [1], “no binding”; in test [2], “binds”; in test [3], “no binding”.

B3: Bub3-myc13 (protein, UniProt P26449 1-341)
chain: MQIVQIEQAPKDYISDIKIIPSKSLLLITSWDGSLTVYKFDIQAKNVDLLQSLRYKHPLLCCNFIDNTDLQIYVGTVQGEILKVDLIGSPSFQALTNNEANLGICRICKYGDDKLIAASWDGLIEVIDPRNYGDGVIAVKNLNSNNTKVKNKIFTMDTNSSRLIVGMNNSQVQWFRLPLCEDDNGTIEESGLKYQIRDVALLPKEQEGYACSSIDGRVAVEFFDDQGDDYNSSKRFAFRCHRLNLKDTNLAYPVNSIEFSPRHKFLYTAGSDGIISCWNLQTRKKIKNFAKFNEDSVVKIACSDNILCLATSDDTFKTNAAIDQTIELNASSIYIIFDYEN
Take B3: the binding entry in test [5], in test [1], in test [2] and in test [3] was “binds” throughout.
